Consider 37 compounds from the supplement of paper PMC9446081.

Hit rate of the full screen: of about 39,000 compounds, about 220 (0.56%) showed activity. This is one part of the list.
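Also: static incubation at 37 °C against the wild-type strain, values averaged over two biological replicates.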

The test system of this test is Escherichia coli K-12 BW25113. Put plainly: relative growth (OD600 normalised to plate interquartile mean) (fraction); higher = less growth inhibition, active = 0.2 or less. The note with it: 50 µM; LB; incubation time: overnight (16-24 h).
As for `CN1C(=O)c2cc(NC(=O)c3ccc(F)cc3)ccc2OC[C@@H]2O[C@@H](CC(=O)N3CCOCC3)CC[C@H]21`, the relative growth was inactive: 1.06.

For the compound `Cc1ccc(S(=O)(=O)Nc2ccc3c(c2)C(=O)N([C@H](C)CO)C[C@@H](C)[C@@H](CN(C)Cc2ccc(Cl)c(Cl)c2)O3)cc1`, the relative growth was inactive: 0.99.

As for `COc1ccc2c3c([nH]c2c1)[C@H](CO)N(CC1CCCC1)C[C@]13CCN(CC1)C(=O)Nc1cccc(c1)F`, the relative growth is inactive: 1.

In the case of `C=CCC[C@@H](Cc1ccc(F)cc1)C(=O)O[C@H](CNC(=O)[C@H](CC=C)CC(=O)N(CCO)Cc1ccccc1)c1ccccc1`, the relative growth was inactive: 1.08.

As to `C[C@@H]1CCCCO[C@H](CN(C)C(=O)Nc2ccccc2)[C@H](C)CN([C@H](C)CO)C(=O)c2cc(NC(=O)C3CCCCC3)ccc2O1`, the relative growth is inactive: 1.03.

For the compound `COc1ccc(NC(=O)N(C)C[C@H]2OCCCC[C@@H](C)Oc3ccc(NS(=O)(=O)c4ccc(Cl)cc4)cc3C(=O)N([C@H](C)CO)C[C@@H]2C)cc1`, the relative growth is inactive: 1.01.

As for `C[C@@H]1CCCCO[C@H](CN(C)C(=O)Nc2ccc3c(c2)OCO3)[C@H](C)CN([C@@H](C)CO)C(=O)c2cc(NC(=O)C3CCCCC3)ccc2O1`, the relative growth was inactive: 1.01.

As for `C[C@H]1CCCCO[C@H](CN(C)C(=O)CCCN(C)C)[C@@H](C)CN([C@@H](C)CO)C(=O)c2cc(NC(=O)Nc3ccc(C(F)(F)F)cc3)ccc2O1`, the relative growth was inactive: 0.954.

For the compound `C[C@H](CCOc1cccc(CC(=O)O)c1)N(Cc1cccc(C(F)(F)F)c1Cl)CC(c1ccccc1)c1ccccc1`, the relative growth is inactive: 0.954.

On to `C[C@@H]1CCCCO[C@H](CN(C)C(=O)Nc2ccc(F)cc2)[C@H](C)CN([C@@H](C)CO)C(=O)c2cc(NS(=O)(=O)c3ccc(Cl)cc3)ccc2O1`, for which the relative growth is inactive: 1.02.

In the case of `CCNC(=O)C[C@H]1CC[C@@H](NC(=O)C2CCOCC2)[C@@H](CO)O1`, the relative growth was inactive: 0.99.

Turning to `CCN1C[C@H](C(=O)N2CCN(c3ncccc3C(N)=O)CC2)CC1=O`, the relative growth is inactive: 0.976.

On to `Nc1nnnn1/N=C\C=C\c1ccccc1`, for which the relative growth is inactive: 1.01.

Consider `C[C@H](CO)N1C[C@H](C)[C@H](CN(C)Cc2cccc(C(F)(F)F)c2)Oc2ncc(-c3cc4ccccc4o3)cc2C1=O`, for which the relative growth was inactive: 0.984.

For the compound `C[C@@H]1CCCCO[C@H](CN(C)C(=O)Nc2cccc3ccccc23)[C@@H](C)CN([C@@H](C)CO)C(=O)c2cc(NC(=O)Nc3ccc(C(F)(F)F)cc3)ccc2O1`, the relative growth was inactive: 1.04.

For `CCCc1cc(C(N)=S)ccn1`, the relative growth was inactive: 1.09.

Consider `C[C@@H]1CN([C@@H](C)CO)C(=O)Cc2cc(NC(=O)CCC(F)(F)F)ccc2O[C@@H]1CN(C)Cc1ccc(Cl)c(Cl)c1`, for which the relative growth is inactive: 1.

Take `Cc1noc(C)c1S(=O)(=O)N(C)C[C@H]1OCCCC[C@H](C)Oc2ccc(NS(=O)(=O)c3cn(C)cn3)cc2C(=O)N([C@@H](C)CO)C[C@@H]1C`: the relative growth is inactive: 1.

For `COc1ccc(NC(=O)N(C)C[C@H]2Oc3ccc(NC(=O)Cn4cnnn4)cc3CC(=O)N([C@H](C)CO)C[C@H]2C)cc1`, the relative growth is inactive: 0.985.

For the compound `C[C@H](O)C#Cc1cnc2c(c1)C(=O)N([C@H](C)CO)C[C@H](C)[C@@H](CN(C)C(=O)Nc1ccc(C(F)(F)F)cc1)O2`, the relative growth is inactive: 0.972.

With `COc1ccc2c3c(n(c2c1)C)[C@@H](CO)N(Cc1cc(cc(c1)OC)OC)C[C@]13CN(C1)C(=O)NC(C)C`, the relative growth was inactive: 1.02.

As for `C[C@H](CO)N1C[C@H](C)[C@@H](CN(C)S(=O)(=O)c2cn(C)cn2)OCCCC[C@H](C)Oc2ccc(NC(=O)c3ccncc3)cc2C1=O`, the relative growth is inactive: 0.994.

With `Cc1cc(C(=O)Nc2cccc3c2O[C@H](CN(C)Cc2ccccc2)[C@H](C)CN([C@H](C)CO)C3=O)n(C)n1`, the relative growth is inactive: 0.999.

As to `COc1ccc(CCN(C)CCCOc2ccc(S(=O)(=O)c3c(C(C)C)cn4ccccc34)cc2)cc1OC`, the relative growth is inactive: 1.05.

Consider `COc1ccc(CN(C)C[C@H]2OCCCC[C@@H](C)Oc3ccc(NC(=O)Nc4ccc(C(F)(F)F)cc4)cc3C(=O)N([C@H](C)CO)C[C@@H]2C)cc1`, for which the relative growth is inactive: 1.02.

Regarding `C[C@@H]1CCCCO[C@@H](CN(C)C(=O)Nc2cccc3ccccc23)[C@@H](C)CN([C@H](C)CO)C(=O)c2cc(NC(=O)Nc3cccc4ccccc34)ccc2O1`, the relative growth was inactive: 1.01.

With `C[C@@H]1CN([C@H](C)CO)C(=O)c2cc(NC(=O)Cn3cnnn3)ccc2O[C@@H]1CN(C)C(=O)NC1CCCCC1`, the relative growth is inactive: 1.01.

With `COCC#Cc1cnc2c(c1)C(=O)N([C@H](C)CO)C[C@@H](C)[C@@H](CN(C)S(=O)(=O)c1ccccc1)O2`, the relative growth was inactive: 0.99.

For `C[C@@H]1CN([C@@H](C)CO)C(=O)c2cc(NC(=O)Nc3ccc4c(c3)OCO4)ccc2O[C@@H](C)CCCCO[C@@H]1CN(C)C(=O)C1CCCCC1`, the relative growth is inactive: 1.01.

In the case of `C[C@@H]1CN([C@H](C)CO)C(=O)c2cc(NC(=O)C3CC3)ccc2O[C@@H]1CN(C)S(=O)(=O)c1cn(C)cn1`, the relative growth is inactive: 0.991.

With `O=C(Nc1ccc2c(c1)[C@H]1C[C@H](CC(=O)N3CCc4ccccc4C3)O[C@H](CO)[C@H]1O2)C1CCOCC1`, the relative growth is inactive: 0.999.

Turning to `COc1ccc(NC(=O)N(C)C[C@@H]2OCCCC[C@@H](C)Oc3ccc(NC(=O)Nc4ccccc4)cc3C(=O)N([C@H](C)CO)C[C@H]2C)cc1`, the relative growth is inactive: 1.03.

For the compound `COc1ccccc1S(=O)(=O)N1C[C@H](O)COC[C@H]2O[C@H](CC(=O)O)CC[C@@H]21`, the relative growth was inactive: 0.937.

Take `C[C@@H]1CCCCO[C@H](CN(C)Cc2ccc(Cl)c(Cl)c2)[C@@H](C)CN([C@H](C)CO)C(=O)c2cc(N(C)C)ccc2O1`: the relative growth is inactive: 1.02.

On to `C[C@H](CO)N1C[C@H](C)[C@@H](CN(C)C(=O)CCC(F)(F)F)OCCCC[C@H](C)Oc2ccc(NC(=O)Nc3ccc4c(c3)OCO4)cc2C1=O`, for which the relative growth is inactive: 1.01.

Regarding `COc1ccccc1CNC(=O)C[C@H]1C[C@H]2c3cc(NS(=O)(=O)c4ccc(F)cc4)ccc3O[C@H]2[C@@H](CO)O1`, the relative growth is inactive: 1.05.

Turning to `C[C@H](CO)N1C[C@H](C)[C@@H](CN(C)Cc2ccc(C(=O)Nc3ccccc3N)cc2)Oc2c(NC(=O)Nc3ccccc3)cccc2C1=O`, the relative growth was inactive: 1.
